Laboratory results reported in the supplement of paper PMC4723716.
± gives the uncertainty stated by the source. Over roughly 9,900 compounds, “viability index relative to DMSO control” has its median near 1; the lowest 2% begin near 0.85. This is one part of the list.

Tested on: Plasmodium falciparum NF54 stage V gametocytes
Assay: viability index relative to DMSO control (fraction); higher = less gametocyte killing
Conditions: 2.5 µM, library set: Broad Institute DOS, incubation time: 72 h
In short: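 Viability index is the count of red-stained particles in a well divided by the plate mean of solvent-only wells. Particles of 20–70 µm2 were counted in one imaged field per well after one to two hours with 3 µl of 2.5 µM MitoTracker Red CMXRos and 0.13% saponin. Before staining, P. falciparum NF54 stage V gametocytes in serum-free medium (0.75% gametocytemia, 1.25% hematocrit, 10 µl, 1,536-well plates) were kept with compound at 2.5 µM for 72 hr at 37°C under low oxygen.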

Structure (SMILES)	viability index
CCS(=O)(=O)Nc1ccc2c(c1)C(=O)N(C)[C@H]1CC[C@H](CC(=O)N[C@H]3CCN(Cc4ccccc4)C3)O[C@@H]1CO2	1.131 ± 0.0043
COc1cccc(CN2C[C@]3(CN(CC4CCOCC4)C3)c3c([nH]c4cc(OC)ccc34)[C@@H]2CO)c1	0.937 ± 0.035
CN(C)C(=O)c1ccc(-c2ccc([C@H]3[C@@H]4CNC[C@H]3N4)cc2)cc1	1.1171 ± 0.00098
O=C1N[C@H](c2ccccc2)COCc2cnnn2CC[C@H]1Cc1ccc(C(F)(F)F)cc1	1.03 ± 0.049
COc1ccc2c3c([C@@H](CO)N(Cc4ccccc4OC)C[C@]33CN(C)C3)n(C)c2c1	0.9572 ± 0.002
O=S(=O)(c1ccccc1)N1CC2(C1)[C@@H](c1ccccc1)[C@@H](CO)N2CCC(F)(F)F	1.09 ± 0.08
CCCNC(=O)N1C[C@]2(CN(C2)C(=O)CN(C)C)c2c([C@H]1CO)n(C)c1cc(OC)ccc21	1.036 ± 0.0069
COc1ccccc1NC(=O)N1C[C@H](O)COC[C@H]2O[C@H](CC(=O)NCCc3ccncc3)CC[C@@H]21	1.08 ± 0.062
Cc1ccccc1-c1ccc([C@@H]2[C@H](CO)N3C(=O)CN(C(=O)NC4CCCC4)C[C@@H]23)cc1	1.03 ± 0.037
COc1ccc2c3c([nH]c2c1)[C@H](CO)N(Cc1ccccc1Cl)C[C@]31CN(C1)C(=O)C1CC1	0.971 ± 0.052
C/C=C/c1ccc([C@H]2[C@@H](CNC(=O)NC(C)C)N(C(=O)C3CC3)[C@H]2CO)cc1	1.064 ± 0.0069
N#Cc1ccc(-c2ccc3c(c2)[C@@H]2[C@@H](CCN2C(=O)C2CCCCC2)[C@H](CO)N3)cc1	0.918 ± 0.11
CN1[C@@H]2c3ccc(/C=C/c4ccccc4)c(=O)n3C[C@H]1[C@H](CO)[C@H]2C(=O)NC1Cc2ccccc2C1	1.081 ± 0.0019
COc1ccccc1S(=O)(=O)N(C)C[C@@H]1OCc2cn(nn2)CCCC(=O)N([C@@H](C)CO)C[C@H]1C	1.03 ± 0.038
C[C@@H]1C(=O)N[C@@H](c2ccc3c(c2)OCO3)C/C=C/C[C@H](C)Oc2ccccc2C(=O)N1C.C[C@@H]1C(=O)N[C@@H](c2ccc3c(c2)OCO3)C/C=C\C[C@H](C)Oc2ccccc2C(=O)N1C	0.979 ± 0.08
COc1ccccc1-c1cnc2c(c1)C(=O)N([C@H](C)CO)C[C@H](C)[C@@H](CN(C)C(=O)CC1CC1)O2	1.03 ± 0.047
C[C@H]1CN([C@@H](C)CO)S(=O)(=O)c2ccc(-c3cccc(C#N)c3)cc2O[C@@H]1CN(C)C(=O)c1ccccc1	0.97 ± 0.029
O=C(C[C@@H]1C[C@H]2c3cc(NC(=O)CC4CC4)ccc3O[C@H]2[C@@H](CO)O1)NCC1CC1	1.077 ± 0.0022
O=C(C[C@H]1CC[C@H](NC(=O)C2CCOCC2)[C@@H](CO)O1)NCC1CCCCC1	1.026 ± 0.0015
C[C@H]1C/C=C/C[C@H](c2ccccc2)NC(=O)[C@H](C)N(C)C(=O)c2ccccc2O1.C[C@H]1C/C=C\C[C@H](c2ccccc2)NC(=O)[C@H](C)N(C)C(=O)c2ccccc2O1	1.06 ± 0.015
O=C(C[C@@H]1CC[C@@H]2[C@H](COC[C@H](O)CN2CC2CCOCC2)O1)NCC1CCCCC1	1.07 ± 0.04
C[C@@H]1CN([C@H](C)CO)C(=O)c2c(c3ccccc3n2C)-c2ccccc2CO[C@H]1CN(C)C(=O)[C@@H](Cc1ccccc1)N(C)C	1.14 ± 0.11
C[C@H](CO)N1C[C@H](C)[C@@H](CN(C)S(=O)(=O)c2ccc(Cl)cc2)Oc2ccc(NC(=O)Cn3cnnn3)cc2CC1=O	1.04 ± 0.033
OC[C@@H]1[C@H](c2ccc(-c3ccc(F)cc3)cc2)[C@H](CNC2CCCC2)N1CCC(F)(F)F	0.837 ± 0.1

Structure (SMILES)	viability index
COc1ccc(C#Cc2ccc([C@H]3[C@@H](CO)N4CCCCN(C)C[C@@H]34)cc2)cc1	1.039 ± 0.0014
COc1cccc(CNC(=O)C[C@H]2CC[C@H]3[C@@H](COc4ccc(NS(=O)(=O)c5ccccc5F)cc4C(=O)N3C)O2)c1	1.04 ± 0.033
CO[C@@H]1CN(C)C(=O)c2cc(NC(=O)Nc3ccc4c(c3)OCO4)ccc2OC[C@@H](C)N(C(C)=O)C[C@H]1C	1.03 ± 0.015
O=C(NCC[C@H]1CC[C@@H](NC(=O)C2CCOCC2)[C@H](CO)O1)c1cc(Cl)cc(Cl)c1	1.06 ± 0.053
CN1CCN(C(=O)C[C@H]2CC[C@H]3[C@@H](COC[C@H](O)CN3Cc3cccc(-c4ccncc4)c3)O2)CC1	0.988 ± 0.17
COCC(=O)N1CC[C@@]2(CC1)CN[C@@H](CO)c1c2c2ccc(OC)cc2n1C	0.987 ± 0.04
O=C(C[C@@H]1C[C@H]2c3cc(NS(=O)(=O)c4ccc(F)cc4)ccc3O[C@H]2[C@H](CO)O1)NCc1cccnc1	1.02 ± 0.045
Cc1noc(C)c1NC(=O)Nc1ccc2c(c1)C(=O)N([C@H](C)CO)C[C@H](C)[C@@H](CN(C)S(=O)(=O)c1cccs1)OCCCC[C@H](C)O2	1.083 ± 0.0078
C/C=C/c1ccc([C@@H]2[C@H](CO)N(Cc3cncnc3)C23CN(C(=O)COC)C3)cc1	1.08 ± 0.022
OC[C@@H]1[C@@H](c2ccccc2)C2(CN(CC3CC3)C2)N1Cc1ccc(F)cc1	0.984 ± 0.077
Cc1noc(C)c1S(=O)(=O)Nc1ccc2c(c1)C(=O)N([C@@H](C)CO)C[C@@H](C)[C@H](CN(C)C(=O)Nc1cccc3ccccc13)OCCCC[C@@H](C)O2	1.01 ± 0.068
Cc1cc(C(=O)Nc2ccc3c(c2)C(=O)N(C)[C@@H]2CC[C@@H](CC(=O)NCc4ccc(-c5ccccc5)cc4)O[C@H]2CO3)no1	1.04 ± 0.081
CCCC(=O)N1C[C@@]2(C1)CN([C@@H](CO)c1[nH]c3cc(OC)ccc3c21)S(=O)(=O)c1ccc(C)cc1	0.9841 ± 0.0028
CC(=O)N1CC2(C1)[C@@H](c1ccc(-c3ccc(F)cc3)cc1)[C@@H](CO)N2CC1CC1	1.08 ± 0.023
COc1ccc2c3c([C@H](CO)N(Cc4ccc(F)cc4)C[C@]33CCN(C)CC3)n(C)c2c1	0.932 ± 0.099
COc1ccccc1-c1ccc2c(c1)O[C@H](CN(C)CC1CCOCC1)[C@H](C)CN([C@H](C)CO)S2(=O)=O	1.04 ± 0.028
CCCNC(=O)N1[C@H](C#N)[C@H](c2ccc(C#Cc3cccc(F)c3)cc2)[C@H]1CO	1.0265 ± 0.00037
COc1ccccc1-c1ccc([C@@H]2[C@@H](CO)N(CC3CC3)C23CN(S(C)(=O)=O)C3)cc1	1.102 ± 0.0048
Cc1ccccc1-c1cnc2c(c1)C(=O)N([C@H](C)CO)C[C@H](C)[C@H](CN(C)Cc1ccccc1F)O2	1.06 ± 0.12
COc1ccccc1NC(=O)N[C@H]1CC[C@@H](CCNS(=O)(=O)c2ccc(Cl)cc2)O[C@H]1CO	0.97 ± 0.014
C[C@@H]1CN([C@@H](C)CO)C(=O)c2c(c3ccccc3n2C)-c2ccccc2CO[C@@H]1CN(C)C	1.008 ± 0.0079
C[C@H]1CN([C@@H](C)CO)C(=O)c2cc(NC(=O)Cn3cnnn3)ccc2O[C@@H]1CN(C)C(=O)Nc1ccc2c(c1)OCO2	1.02 ± 0.085
O=C(Nc1ccc(Cl)cc1)N1C[C@@H]2[C@H](c3ccccc31)[C@H](CO)N2CC1CCCCC1	1.03 ± 0.14
O=C(Nc1ccccc1F)N[C@H]1CC[C@H](CCNC(=O)C2CC2)O[C@H]1CO	1.13 ± 0.044

Structure (SMILES)	viability index
CCCC(O)C#Cc1cnc2c(c1)C(=O)N([C@H](C)CO)C[C@H](C)[C@H](CN(C)S(=O)(=O)c1ccc(C#N)cc1)O2 (stereo not given in full)	1.06 ± 0.04
CO[C@@H]1CN(C)C(=O)c2cc(NC(=O)Nc3ccccc3Cl)ccc2OC[C@@H](C)N(S(=O)(=O)CC(F)(F)F)C[C@H]1C	1.06 ± 0.066
O=C(C[C@H]1CC[C@H]2[C@@H](COC[C@@H](O)CN2CCC(F)(F)F)O1)NCC1CC1	1.13 ± 0.049
COCC(=O)N1CC[C@@]2(CC1)CN(Cc1ccccc1Cl)[C@H](CO)c1[nH]c3cc(OC)ccc3c21	1.023 ± 0.0089
COc1ccc([C@H]2C/C=C\C[C@H](c3ccc4c(c3)OCO4)NC(=O)CCC(=O)N2)c(OC)c1	1.041 ± 0.01
COc1ccc2c(c1)n(C)c1[C@@H](CO)N(C[C@]3(CCN(C)CC3)c21)C(=O)c1ccc(F)cc1	1.05 ± 0.022
C[C@H](CO)N1C[C@H](C)[C@H](CN(C)C(=O)Nc2ccc(C(F)(F)F)cc2)Oc2ccc(NC(=O)C3CCCCC3)cc2C1=O	0.971 ± 0.023
CC(C)NC(=O)N1[C@H](CO)[C@@H]2c3ccccc3N(C)C[C@@H]21	1.03 ± 0.014
O=C(C[C@H]1CC[C@H]2NC[C@@H](O)COC[C@@H]2O1)Nc1nccs1	0.991 ± 0.05
C[C@@H]1CN([C@H](C)CO)S(=O)(=O)c2ccc(C#CCC3CCCC3)cc2O[C@@H]1CN(C)C(=O)c1cnccn1	0.9131 ± 0.0012
C[C@H](NC(=O)[C@H]1[C@H](CO)[C@H]2Cn3c(cccc3=O)[C@@H]1N2C(=O)C1CCC1)c1ccccc1	1.07 ± 0.085
CCN1CC(=O)N2[C@H](CO)[C@@H](c3ccc(Br)cc3)[C@H]2C1	0.949 ± 0.032
CCC(=O)N1[C@H](CO)[C@@H](c2ccccc2)C12CN(C(=O)Nc1ccccc1F)C2	1.11 ± 0.13
COc1ccc2c3c([nH]c2c1)[C@H](CO)NC[C@]31CCN(CC1)C(=O)Cc1cccnc1	1.02 ± 0.03
COc1ccc2c3c([nH]c2c1)[C@H](CO)N(C[C@]31CN(C1)C(=O)CC1CC1)C(=O)c1cccc(F)c1	0.978 ± 0.072
Cc1noc(C)c1NC(=O)Nc1ccc2c(c1)C(=O)N(C)[C@H]1CC[C@@H](CC(=O)N[C@@H]3CCN(Cc4ccccc4)C3)O[C@H]1CO2	0.927 ± 0.11
C/C=C/c1ccc([C@H]2[C@@H](CO)N3C(=O)CN(C(=O)Nc4ccc(F)cc4)C[C@H]23)cc1	1.08 ± 0.067
COc1ccccc1NC(=O)N1[C@@H]2CNC[C@H]1[C@H]2c1ccc(-c2ccccc2C)cc1	1.06 ± 0.014
CCC(=O)NC[C@H]1N[C@H](CO)[C@@H]1c1ccc(-c2cccnc2)cc1	1.06 ± 0.034
COc1ccc(S(=O)(=O)N(C)C[C@@H]2Oc3ccc(NC(=O)Cc4cn(C)c5ccccc45)cc3C(=O)N([C@H](C)CO)C[C@H]2C)cc1	1.02 ± 0.062
O=C(C1CCOCC1)N1CC2(C1)[C@@H](c1ccccc1)[C@H](CO)N2Cc1ccccc1F	1.07 ± 0.025
Cc1noc(C)c1NC(=O)N(C)C[C@H]1Oc2ccc(NC(=O)Cc3cn(C)c4ccccc34)cc2CC(=O)N([C@H](C)CO)C[C@@H]1C	1.04 ± 0.045
